Experimental data from the supplement of paper PMC3334620.
Over roughly 33,000 sequences, “E-score (-0.5 to 0.5)” has its median near -0.053; the highest 2% begin near 0.37. This is one part of the list.

These sequences were tested against Hap1 (UniProt P0CE41) (assay: PBM E-score (8-mer binding enrichment) (E-score (-0.5 to 0.5)); higher = stronger / more preferred TF binding; most listed sequences are background and not binding sites). Details: protein concentration: 200 nM; construct: GST-DNA-binding domain.
Chain of UniProt P0CE41 (P0CE41 whole entry, the tested form may be a part): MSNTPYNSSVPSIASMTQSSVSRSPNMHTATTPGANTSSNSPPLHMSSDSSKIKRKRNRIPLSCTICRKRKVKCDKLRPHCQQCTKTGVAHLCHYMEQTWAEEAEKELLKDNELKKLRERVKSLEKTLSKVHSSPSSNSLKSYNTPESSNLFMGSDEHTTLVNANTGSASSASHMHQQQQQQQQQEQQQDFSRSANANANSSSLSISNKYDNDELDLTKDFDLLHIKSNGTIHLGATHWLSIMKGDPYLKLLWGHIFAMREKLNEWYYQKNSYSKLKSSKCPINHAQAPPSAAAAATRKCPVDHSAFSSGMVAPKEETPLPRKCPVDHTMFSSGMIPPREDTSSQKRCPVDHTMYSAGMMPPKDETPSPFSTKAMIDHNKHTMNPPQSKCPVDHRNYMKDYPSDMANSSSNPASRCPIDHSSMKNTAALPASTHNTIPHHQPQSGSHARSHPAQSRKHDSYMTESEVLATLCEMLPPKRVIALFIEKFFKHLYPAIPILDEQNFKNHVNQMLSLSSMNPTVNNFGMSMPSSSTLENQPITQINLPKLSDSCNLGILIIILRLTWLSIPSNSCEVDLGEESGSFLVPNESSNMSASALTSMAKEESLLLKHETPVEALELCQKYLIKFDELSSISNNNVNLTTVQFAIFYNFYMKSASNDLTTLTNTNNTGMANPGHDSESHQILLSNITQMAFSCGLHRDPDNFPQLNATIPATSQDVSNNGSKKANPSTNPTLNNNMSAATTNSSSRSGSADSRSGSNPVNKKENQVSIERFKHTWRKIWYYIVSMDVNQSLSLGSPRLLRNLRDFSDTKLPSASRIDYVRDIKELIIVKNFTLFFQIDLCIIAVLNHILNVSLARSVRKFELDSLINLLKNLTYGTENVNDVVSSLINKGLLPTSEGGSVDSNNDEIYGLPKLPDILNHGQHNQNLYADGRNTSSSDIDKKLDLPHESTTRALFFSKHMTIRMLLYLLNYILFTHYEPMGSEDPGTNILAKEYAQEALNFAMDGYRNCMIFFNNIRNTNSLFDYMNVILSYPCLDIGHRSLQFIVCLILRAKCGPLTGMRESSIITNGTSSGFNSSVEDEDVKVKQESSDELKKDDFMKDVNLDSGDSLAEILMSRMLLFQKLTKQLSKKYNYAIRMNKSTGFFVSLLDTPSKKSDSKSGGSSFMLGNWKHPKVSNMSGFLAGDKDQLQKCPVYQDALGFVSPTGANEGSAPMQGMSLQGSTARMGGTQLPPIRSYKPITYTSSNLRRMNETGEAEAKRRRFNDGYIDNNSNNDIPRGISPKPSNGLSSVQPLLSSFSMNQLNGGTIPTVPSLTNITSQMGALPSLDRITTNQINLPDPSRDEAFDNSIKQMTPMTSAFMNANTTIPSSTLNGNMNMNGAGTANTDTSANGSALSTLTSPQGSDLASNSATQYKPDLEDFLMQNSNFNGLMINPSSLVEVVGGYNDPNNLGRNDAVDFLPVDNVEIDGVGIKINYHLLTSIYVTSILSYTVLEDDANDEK
Method: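 Universal 'all 10-mer' protein binding microarrays (Agilent AMADID 015681) probed with GST-tagged S. cerevisiae TFs (full-length or DBD) made by in vitro transcription/translation (PURExpress), about 100-200 nM. Bound TF was detected with fluorescent anti-GST. Each ungapped 8-mer (which stands for itself and its reverse complement) is scored by the PBM enrichment score (E-score), a modified Wilcoxon-Mann-Whitney statistic from -0.5 to +0.5, computed with the Universal PBM Analysis Suite. Scale: above 0.35 generally sequence-specific binding.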

Sequence	PBM E-score
CTTCGCAA	-0.0531
GGGCCATA	0.194
TATAGCGA	-0.129
AAACATGA	-0.353
TCTCTTAA	-0.0735
ACCGGTAG	0.228
GATGGGTA	-0.088
AAAGTGGC	0.00164
GCTCATAA	0.0768
ATCAGGTC	-0.132
AATAATCG	-0.041
AGTGTCCC	0.117
CCGTCCCA	0.153
ATGATAAT	-0.033
ATGCTCGA	-0.153
GGCCTGGA	-0.2
CACAAGTC	-0.229
GCCTTTAA	0.0534
AATTCGGC	0.131
CGTCATAC	-0.023
GAGAGAGA	-0.0161
GCTTCGAA	-0.121
ATATGTGG	-0.178
CTGCGCGA	-0.0115
AGACAACT	-0.0428

Sequence	PBM E-score
AACGGATC	0.273
CGATTAGC	0.0149
ATCATTCA	-0.104
CGCTAGAG	0.0161
CTTCAGGC	-0.238
GAGGTGTA	-0.124
CAAGGGTG	-0.0184
ACCCCTTA	0.0742
GGAACGAA	0.084
GTGTAAGA	-0.204
CTAGAGAG	-0.286
CTACCGTC	-0.0171
CGGGTTAC	0.221
ACTTTGCT	-0.0503
GCTGCAGC	0.103
TAAGGTAA	-0.0314
GCGGATTA	0.189
GGGAGACA	0.0397
AATGTGCC	0.00838
GCGTTACC	0.203
CCGCGAGC	0.173
GTGTCGCA	-0.131
CCCGCGTC	0.194
GAGTAGCC	-0.102
TCCTTTAA	0.123

Sequence	PBM E-score
CGAGTGAC	0.0153
ATATAATG	-0.169
ACTGTGGG	-0.362
AGATTGCA	-0.141
CGTAGATA	0.0963
CCGGGCAA	0.322
GCGACACA	-0.0302
CACCAGTC	-0.184
ATCGTAGG	-0.254
AGTTCCCC	0.196
AAGTAAGG	0.0149
AAAGCATC	-0.0846
TACTCGAA	-0.263
GTGATCAC	0.0608
ATGGGGAA	0.0435
AATCGACC	0.192
AAGGGGGC	-0.17
AGTGAAGC	-0.0458
GGTAAACA	0.0313
AAATCTGG	0.068
AGCTGAAC	-0.176
AACGGTAT	0.0602
CGCGGATC	0.172
CGCACAGC	0.119
GCCCCTCC	-0.0479

Sequence	PBM E-score
AATGGGTA	-0.15
CCTGCATA	-0.0504
CCCAGTAC	-0.213
AGGACTTA	0.18
CGTTAAAA	0.146
ACTATCCC	-0.0617
CGGGTAAG	0.0144
ACCCCCGG	0.368
GGAACACA	-0.109
AAGAGCGC	-0.179
CATCCGAA	0.368
CGGCCGTC	0.277
AGGCGGCG	0.11
CACTGCCC	-0.0237
AAAGCGGA	0.275
CTTGGAGC	-0.121
GCACCTCC	0.0324
CATGGAGC	-0.183
GCCGTATA	0.138
AGAGACCG	0.0963
GCCCAATA	0.0755
ATTGTCAC	-0.0894
CCTAACCA	-0.173
GGGTAGCA	0.0223
TCACCAGA	-0.189

Sequence	PBM E-score
CCCCGCTA	0.344
GGTCGTTA	-0.00692
GTGCCACA	-0.336
AAAGGTCA	-0.194
ATGTTGCA	-0.266
GGGACGAC	-0.117
TACCATAA	-0.0311
AGCGACGA	-0.16
TACAATAA	-0.144
AGAAAAGC	-0.0527
GACGAGAA	-0.0307
GGCGCACA	0.0367
CGTAAAGC	-0.0471
TAATATCA	-0.0611
TTGGGAAA	-0.142
CTCATCCA	-0.294
ATCTTACA	-0.126
CCCGGTAG	0.336
ACCGAGCC	0.277
TACTAGGA	-0.103
CCAATCGG	0.208
AGGACACT	-0.148
CCAAGAAG	-0.228
CCGCATAA	0.331
AAATCTTA	-0.214

Sequence	PBM E-score
CTTTCGTC	0.00964
CGGCACTA	0.368
ACTATTCG	-0.0974
CTGACATA	-0.229
ACAGTAGC	-0.116
GATTGCAA	-0.0227
AGATGCGC	-0.0857
ACTATAAC	0.0195
CGAACTAC	0.127
CTGAGAGC	-0.0186
AGAGGTCC	0.104
GCCGACGA	0.202
ACGTAGAC	-0.353
CGATTCGC	0.133
CGACTATC	0.0793
ATAGAAAT	0.0331
ATCCCCAA	-0.165
CAAGTCTA	-0.201
TAGGGCGA	-0.203
TAATGAGA	-0.164
CCTGGTCC	0.138
AATCTGAC	-0.206
AGTGATTA	0.113
CCCTCCGA	0.253
GGCTCTCA	-0.124

Sequence	PBM E-score
CATACTTA	-0.231
ACTCGGTA	0.113
AAGATCAG	-0.214
TAGCCCTA	-0.22
CCTATTCG	0.085
CTCTGATA	-0.087
CGCGCAGC	0.0272
GAGCACGC	-0.0883
AAAGTCGA	-0.171
AACACGCT	0.0544
AATCATAC	0.00642
ACCGTCTA	-0.00308
CTGTGTCC	-0.0361
ACTCTAGC	-0.208
CTTTTCTC	-0.094
GCTCACAA	-0.11
ATATATAT	0.25
ATATCAAC	0.0205
CGTCCAAC	-0.267
ACCGCGTG	0.0442
CTAGGCTC	-0.155
AAGACACA	-0.238
GTCCCGAA	0.111
CAGCATGA	-0.201
AAATATCT	0.0958

Sequence	PBM E-score
ACCGGGTA	0.287
CGATGTCA	-0.0608
AACGCTAG	-0.162
CCATCATC	-0.16
ACGTCTCT	-0.0771
AGAACGAG	-0.122
TCCAGGCA	-0.132
CTTACGGC	0.333
AAACCGGA	0.328
CCGTCCTC	0.134
AACCTTTA	-0.0305
GCTTTGCA	-0.136
CTGGCGCA	-0.28
AACACCCC	-0.00343
CCAAGTAA	-0.178
GTGCCCAC	-0.263
CTTTTAGA	-0.0131
AGAGTTAT	-0.126
GACGAGTA	-0.0242
GACACAGC	-0.146
CCCCCGCC	0.158
ACTTACGA	-0.0152
AGGGTGGA	-0.0754
ATAGTATG	0.0539
ATAACCTC	-0.0153

Sequence	PBM E-score
CAGTGTAG	-0.22
CACCCGCC	0.257
GGAACTAC	0.133
CGGGAAGC	0.0962
GAAAAACA	-0.109
CCCTGGCA	0.0908
TAGGAGGA	-0.249
ACCTCAAA	-0.0183
GAAGCTCC	0.329
CCCAAGCA	-0.18
CATACAGC	-0.0521
GCTCCAGC	-0.0411
GCCACGGC	0.073
AGTCGTAA	0.00615
GGGAGCAA	0.0117
GGCACGGA	0.175
CCTCTCTA	-0.251
CTCTTGTA	-0.0937
AAAACCAC	-0.0546
GCGCGTGA	0.114
GGGTACAC	-0.0172
CTCCATAC	-0.0699
ACACTAGG	-0.195
GACGCTTA	-0.242
CACAAAGA	-0.169

Sequence	PBM E-score
GGCTTCGA	-0.0926
GATTCCAC	0.119
AGGACCAC	-0.168
ACGTAGAT	-0.0926
GTCCTTTA	0.146
ACCTCGTC	0.106
GGCGGGAC	0.0644
CGCGCCAG	0.0862
GTGCCTCA	-0.158
GGTGGAAA	0.127
GGATAATA	0.197
AAAGATTC	-0.184
AAGGTGAC	-0.168
GTCGCAAC	-0.0641
CTAACATA	-0.109
CACGCGGC	0.0696
ATGAGCTC	-0.0597
CAATACTC	-0.0914
CGATGGGC	-0.0123
CTCTGTTC	-0.204
CTAGAAAA	-0.0898
GGTAAAAA	0.0109
GCTAAAGA	0.0961
TATCCAAA	-0.218
TCTGATAA	-0.18

Sequence	PBM E-score
AAGGACAC	-0.0581
ACTGTCGC	0.019
ACGGCTAT	0.106
AAAATTGG	-0.122
GGGCTCGA	-0.197
CCGTTGTC	0.272
GAATTAAC	0.0565
CAGTAGAC	-0.143
GGTGGTTA	0.0739
CTGGTTGC	0.11
AACACAGA	-0.116
CACGGCGC	0.141
CATCCTAC	-0.129
AGCCACTG	-0.0795
GAATCTAA	0.0164
AGCTGGCC	0.0874
GATAGGGC	-0.0616
GCGATTTA	0.104
AAAGGAAT	0.0441
CCCCCGAA	0.312
GCCGGAAA	0.395
TAGTCACA	-0.195
CTAAGGAG	-0.293
CCCGTATC	0.09
GAGCCTCA	-0.213

Sequence	PBM E-score
GGTTGCAC	-0.0587
CAAACGGA	0.324
ACACTGCG	-0.0754
CTACCTCC	0.224
AAGGAGGG	-0.302
AAAGTGCA	-0.00797
ACTGCCCT	-0.0641
ACCCATAC	-0.209
AAAAAGGC	0.0231
TCCAGACA	-0.102
GACTTGTA	-0.0573
AGCCCAGG	-0.303
AACTGAGT	0.0279
CCTCCTCA	-0.13
AGACACGC	-0.0363
AATGGTAT	-0.17
GAGACGCC	0.0301
GTAACTCA	-0.065
ATCAAAGC	0.0826
TAGCTACA	-0.0941
TAGCGAAA	-0.228
ACAGCTGT	-0.0641
TCGGCCGA	0.48
TCACCGGA	0.373
GGAGAAAC	0.182

Sequence	PBM E-score
ACATAGAT	-0.0216
CGCGGCGC	0.193
ATCGCTGA	0.0794
CAAGAGAC	-0.289
CCCCACAC	-0.0638
CCCCTTTC	-0.0234
ATGTGATG	-0.15
ACTCGGAA	0.344
TTCAGCAA	-0.343
ACAACCGC	0.172
TATCGGCA	0.425
CCCCAATC	-0.0374
GGGCCCAC	0.0877
ACCGCTCA	0.0211
ATTTCGAC	-0.0741
AATTTGAT	-0.046
CGTCGCTC	0.0823
CGGGAGTA	0.339
GCAACAGC	-0.105
GTCATGAC	-0.111
ACCCTAGT	-0.314
CGAAACAA	0.147
ACCAAATG	-0.0322
AAGAGCGA	0.122
GCAATCCA	-0.0428

Sequence	PBM E-score
GAAACTCA	-0.096
CGGATAAG	0.31
CGTGGCCC	-0.0117
AATCTCGA	-0.146
GGGGTGCA	0.0557
CGACTGCG	0.0793
ACCATATA	-0.14
ATGCACGC	-0.0214
CGTACAAC	-0.0551
GTCCTGCA	-0.301
ACATTTCG	0.0432
ATGGTCCG	0.365
CCCCCCGA	0.253
CAAGAAAC	0.106
ATGCGGGC	0.0246
CGGTGTTA	0.465
ACATCAGT	-0.015
ATGAGTAG	0.0588
ACGTTGTC	-0.0818
